Results from PubChem BioAssay AID1508642 (National Center for Advancing Translational Sciences (NCATS), 2021).
About 200 (0.47%) of roughly 43,000 compounds were called active. Not shown: some 12% with an inconclusive outcome. Calls follow the shape of the dose curve; as a rule, active = well fitted cell-killing curve with a large enough effect; inconclusive = small, poorly fitted or top-dose-only effect, or effect the other way; inactive = flat fitted curve, though single readings scatter. The list shows a part of the results.

Experiment: Cell viability qHTS assay in S16 Pmp22-F2sN cells; also: nearly all actives have a fitted effect of over 65% in size
Settings: S16 Pmp22-F2sN Schwann cells (luciferase reporters placed in the Pmp22 gene) viability, CellTiter-Glo, 24 h; series mostly up to 57.5 µM; activity change, negative = cytotoxicity: at the top concentration
Procedure, shortened: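 Luminescence from CellTiter-Glo, read by CCD camera after a 15 min room-temperature incubation, served as the viability signal. Reporter Schwann cells (S16 Pmp22-F2sN) had been treated with pin-transferred compounds for 24 h at 37C.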
% is scaled to controls: 0 for no effect and ±100 for the full control effect.

Row | Compound | activity change, negative = cytotoxicity
1 | COc1ccccc1N1CCN(C(=O)CN2C(=O)COc3ccc(S(=O)(=O)N4CCCC4)cc32)CC1 | inactive: 22.8%
2 | CCc1nc(SCc2cc(=O)c3cc(C)ccc3[nH]2)n[nH]1 | inactive: 0.242%
3 | CCn1c(/C(C#N)=C/c2ccccc2Cl)nc2ccccc21 | inactive: -25%
4 | CCc1cccc(NC(=O)CSc2nc3ccsc3c(=O)n2CC)c1 | inactive: 1.28%
5 | CCc1cc2c(-c3ccccc3)cc(=O)oc2c2c1OCN(Cc1ccc(F)cc1)C2 | inactive: 3.21%
6 | COc1cc(OC)c(NC(=O)Nc2c(C)n(C)n(-c3ccccc3)c2=O)cc1Cl | inactive: -2.42%
7 | Cc1cc(C)c2sc(NC(=O)c3ccc(S(=O)(=O)N4CCOCC4)cc3)nc2c1 | inactive: 10.8%
8 | Cn1c(=O)n(C)c2cc(N3CCOCC3)c(NC(=O)c3c(F)cccc3F)cc21 | inactive: -0.361%
9 | CCC(Oc1ccccc1)C(=O)Nc1ccc(OCc2cc(=O)n3ccccc3n2)cc1 (configuration not stated) | inactive: 3.2%
10 | COC(=O)c1ccccc1NC(=O)c1ccc2c(=O)n3c(nc2c1)CCCCC3 | inactive: 1.18%
11 | CCOc1ccc(CNC(=O)C2Cc3ccccc3N2C(=O)CC)cc1 (configuration not stated) | inactive: 6.66%
12 | Cc1ccc(S(=O)(=O)n2nc(-c3ccco3)nc2NCc2ccccc2Cl)cc1 | inactive: 0.297%
13 | Cc1cccc(Cn2cnc3c(cnn3-c3ccc(Cl)cc3)c2=O)c1 | inactive: 6.33%
14 | Cc1cc(C)c2oc(C(=O)Nc3ccc(S(=O)(=O)N4CCC(C)CC4)cc3)cc(=O)c2c1 | inactive: -1.35%
15 | Cc1ccc(CN2CCN(C3CCN(C(=O)Nc4ccccc4C(F)(F)F)CC3)C(=O)C2=O)cc1 | inactive: 4.65%
16 | Cc1cc(C)n2c(Nc3ccccc3)c(-c3ccccc3)nc2n1 | inactive: -13.1%
17 | Cc1ccc(CNC(=O)CCCn2c(=O)c3ccccc3n(Cc3ccccc3C)c2=O)cc1 | inactive: 11.3%
18 | CC(NC(=O)c1ccc2c(c1)N(Cc1ccc(Cl)cc1)C(=O)c1ccccc1S2=O)c1ccccc1 (configuration not stated) | inactive: -4.91%
19 | CC(C)NC(=O)C1CCCN(c2ncnc3c2nc2n3CCCCC2)C1 (configuration not stated) | inactive: 4.45%
20 | Cc1cccc(Cn2nnc(C(=O)Nc3cc(C)ccc3C)c2N)c1 | inactive: -8.36%
21 | Cc1cccc(C)c1NC(=O)CCCN1C(=O)CCn2nc(-c3cn(C)c4ccccc34)cc21 | inactive: -11.3%
22 | COc1ccc(C(=O)NCCn2cc(SCc3cc(C)ccc3C)c3ccccc32)cc1 | inactive: -10.3%
23 | COc1ccccc1NC(=O)c1ccc2oc(=O)c(S(=O)(=O)c3ccccc3)cc2c1 | inactive: 6.88%
24 | CC(CNS(=O)(=O)c1ccc2c(c1)CC(=O)N2C)c1ccccc1 (configuration not stated) | inactive: 18.2%
25 | Cc1ccc(C(C)C)c(OCCCn2c(=O)oc3ccccc32)c1 | inactive: -1.42%

Row | Compound | activity change, negative = cytotoxicity
26 | CCOC(=O)c1c(C)oc2nc(C)nc(NCCCN3CCN(c4ccc(F)cc4)CC3)c12 | inactive: 4.38%
27 | CCOc1ccc(C2c3c(oc4ccccc4c3=O)C(=O)N2c2nnc(C)s2)cc1OC (configuration not stated) | inactive: -8.07%
28 | Cc1cc(N2CCN(c3cccc(C)c3C)CC2)n2nc(C)c(-c3ccc(Cl)cc3)c2n1 | inactive: 1.59%
29 | Cn1nnc2c(NCc3ccccc3)ncnc21 | inactive: 1.12%
30 | Cc1cc(C)cc(-n2c(C)nc3cc(C(=O)NCc4ccc(F)cc4)ccc32)c1 | inactive: -1.8%
31 | CC(C)Cn1c(=O)c2ccccc2n2c(CCC(=O)NCc3ccc(Cl)cc3)nnc12 | inactive: -4.19%
32 | CCN(CCCNC(=O)c1cc2cc3ccc(OC)cc3nc2s1)c1cccc(C)c1 | inactive: -16.9%
33 | CCCN1C(=O)c2[nH]nc(-c3cccc(OC)c3)c2C1c1ccccn1 (configuration not stated) | inactive: 1.63%
34 | CCCCn1c(=N)c(C(=O)NC2CCCCC2)cc2c(=O)n3cccc(C)c3nc21 | inactive: 24.9%
35 | Cn1c(=O)oc2cc(S(=O)(=O)NCCC(=O)NCc3ccc(F)cc3)ccc21 | inactive: -3.15%
36 | CCC(C)NC(=O)c1ccc2c(c1)N(Cc1ccccc1F)C(=O)c1ccccc1S2=O (configuration not stated) | inactive: 8.58%
37 | O=C(CCC(=O)N1CCSc2ccccc21)NCc1ccccc1Cl | inactive: -6.4%
38 | CCOc1ccc(CCNC(=O)c2cn(-c3cccc(OC)c3)c(=O)c3ccccc23)cc1 | inactive: 8.4%
39 | CCc1nc2ccc(C(=O)NCc3ccc(SC)cc3)cc2nc1CC | inactive: 2.06%
40 | OCCN1CCN(C(c2ccc(Cl)cc2Cl)c2sc3nc(-c4ccco4)nn3c2O)CC1 (configuration not stated) | inactive: -0.986%
41 | CCOc1ccc(-n2c(SCC(=O)Nc3ccc4c(c3)OCCO4)nc3c([nH]c4ccccc43)c2=O)cc1 | inactive: 6.32%
42 | Clc1ccccc1-c1nnc(-c2ccccc2CNc2ccc(Br)cc2)o1 | inactive: -1.79%
43 | CCOc1ccccc1CNC(=O)c1cnc2sc(N3CCOCC3)nn2c1=O | inactive: 10.1%
44 | CCN(C(=O)Cn1c(=O)nc(-c2ccccc2)c2cc(Cl)ccc21)c1cccc(C)c1 | inactive: 10.3%
45 | CCOc1ccc(CCNC(=O)Cn2ncc3c([nH]c4ccccc43)c2=O)cc1OCC | inactive: 4.47%
46 | Cc1ccc(Cl)cc1N1CCN(C(=O)c2ccc3c(c2)N(Cc2ccccc2F)C(=O)c2ccccc2S3=O)CC1 (configuration not stated) | inactive: 30.9%
47 | O=C(CCS(=O)(=O)c1cc(Br)cc2c1N(C(=O)C1CC1)CC2)Nc1ccc(F)cc1 | inactive: 0.846%
48 | Cc1ccc(CNC(=O)c2sc3nc(-c4ccccc4)cn3c2C)cc1 | inactive: -6.67%
49 | CC(C)c1ccc2c(c1)NC(c1ccncc1)=NC(c1cccs1)=N2 | inactive: 2.33%
50 | COc1ccc(-c2cc(OC(=O)c3ccccc3)c3c(C)oc(C)c3c(=O)c2)cc1OC | inactive: 2.91%

Row | Compound | activity change, negative = cytotoxicity
51 | CCc1cccc(NC(=O)C(NS(=O)(=O)c2ccc3nc(C)sc3c2)C(C)C)c1 (configuration not stated) | inactive: 2.54%
52 | CCOc1ccccc1NC(=O)CCc1c(C)nc2c(c(C)nn2-c2ccccc2)c1C | inactive: 4.22%
53 | C#CCSc1nc(-c2ccccc2)c2cc(Cl)ccc2n1 | inactive: 1.53%
54 | COc1cccc(NC(=O)Cn2cc(C(=O)c3ccc(F)cc3)c(=O)c3cc(OC)ccc32)c1 | inactive: 11%
55 | Cc1cccc(Cn2cnc3c(oc4ccccc43)c2=O)c1 | inactive: 11.1%
56 | C=CCc1ccc(OCc2ccc(C(=O)Nc3ccc(NC(C)=O)cc3)o2)c(OC)c1 | inactive: 23.7%
57 | CCCN(CCC)CCNC(=O)c1sc2nc3n(c(=O)c2c1C)CCCCC3 | inactive: 25.5%
58 | COc1ccc(-n2c(C)nc3cc(C(=O)NC4CCCCCC4)ccc32)cc1 | inactive: -13.7%
59 | Cc1ccc(C)c(N2C(=O)N(C)c3ccccc3S2(=O)=O)c1 | inactive: 19.1%
60 | COC(=O)c1c(NC(=O)c2nc(SCc3ccccc3C)ncc2Cl)sc2c1CCCC2 | inactive: -5.54%
61 | CCc1c(C)sc2c1CCN(C(=O)Nc1cc(C)ccc1OC)C2c1ccc(F)cc1 (configuration not stated) | inactive: -1.69%
62 | COc1ccc(-c2c(C)nn3c(N4CCN(c5ccccc5F)CC4)cc(C)nc23)cc1OC | inactive: 14.1%
63 | Cc1cc(C)cc(NC(=O)N2CCC(CN3CCc4ccccc4C3)CC2)c1 | inactive: -0.0856%
64 | N#Cc1ccc(NC2=NS(=O)(=O)c3ccccc32)cc1 | inactive: -20.5%
65 | COc1ccc(CNC(=O)c2cccc(N3CCCS3(=O)=O)c2)cc1OC | inactive: -15.2%
66 | O=c1cc(-c2ccc(F)cc2)nc(SCc2nc(-c3cccc(C(F)(F)F)c3)no2)[nH]1 | inactive: 1.53%
67 | COc1ccc(NC(=O)CN2C(=O)C3(SCC(=O)N3c3ccccc3)c3ccccc32)cc1Cl (configuration not stated) | inactive: -1.38%
68 | CCn1c(=NC(=O)c2ccc(S(=O)(=O)N3CCCC3)cc2)sc2cc(Br)ccc21 | inactive: 11.8%
69 | CCOC(=O)c1c(C)c(-c2ccccc2)n(CC(=O)NC2CCCCCC2)c1C | inactive: 13.3%
70 | O=C(Cc1ccccc1)NC1CC(=O)N(c2ccccc2)C1 (configuration not stated) | inactive: 1.31%
71 | Cc1cc(-c2nc3ncccc3o2)ccc1NC(=O)COc1ccccc1C | inactive: -4.99%
72 | CCOC(=O)c1ccccc1NC(=O)CSc1ccc(-c2cccs2)nn1 | inactive: -7.09%
73 | O=c1c2oc3ccccc3c2n(Cc2cccc(Cl)c2)c(=O)n1Cc1ccco1 | inactive: -4.33%
74 | Cc1ccc2occ(CC(=O)N(Cc3ccc(Cl)cc3)C3CCS(=O)(=O)C3)c2c1 (configuration not stated) | inactive: -10.5%
75 | CCN(CC)c1ccc(NC(=O)c2cnc3c(-c4ccccc4)c(C)nn3c2C)c(C)c1 | inactive: 3.79%

Row | Compound | activity change, negative = cytotoxicity
76 | Cc1nnc(N2CCN(C(=O)NC(C)C)CC2)c2nn(-c3ccccc3)c(C)c12 | inactive: 4.05%
77 | Cn1cc(S(=O)(=O)c2cccc(Cl)c2)c(=O)c2cc(F)c(N3CCN(c4ccc(F)cc4)CC3)cc21 | inactive: 8.23%
78 | Cc1ccc(-c2noc(CNS(=O)(=O)c3ccc(F)cc3)n2)cc1 | inactive: 2.98%
79 | CCc1ccc(Nc2nn(-c3ccc(OC(F)(F)F)cc3)nc2C(C)=O)cc1 | inactive: 11.9%
80 | COc1ccccc1N1CCN(C(=O)CN2C(=O)COc3ccc(S(=O)(=O)N4CCCCCC4)cc32)CC1 | inactive: 0.742%
81 | Cc1cccc(OCC(=O)Nc2nc3c(s2)CC(C(C)(C)C)CC3)c1C (configuration not stated) | inactive: 7.13%
82 | CNC(=O)c1c(NC(=O)c2ccc(S(=O)(=O)N3CCCCC3)cc2)sc2c1CCC2 | inactive: 5.43%
83 | COc1ccc(-n2ccnc(NCc3ccccc3OC)c2=O)cc1 | inactive: -16.7%
84 | CCOc1ccc(N2CC(NC(=O)/C=C\c3ccc4c(c3)OCO4)CC2=O)cc1 (configuration not stated) | inactive: 1.28%
85 | CCOC(=O)c1cc2c(=O)n3ccccc3nc2n(C(C)C)c1=NC(=O)c1cc2ccccc2o1 | inactive: -2.74%
86 | COc1ccc(CNC(=O)CN2C(=O)COc3ccc(S(=O)(=O)Nc4ccccc4)cc32)cc1 | inactive: 7.14%
87 | O=C(Nc1ccc(F)c(F)c1)c1cc(S(=O)(=O)NC2CCCCCC2)ccc1F | inactive: -26.4%
88 | CCc1ccc(C(=O)c2cn(CC(=O)NC3CCCCC3)c3nc(C)ccc3c2=O)cc1 | inactive: 7.4%
89 | O=C(c1ccccc1)n1nc(-c2ccccc2)nc1NCc1ccc(F)cc1 | inactive: 2.83%
90 | COc1cccc(CNC(=O)c2ccc3c(c2)c(C)c(C)n3Cc2ccccc2)c1OC | inactive: -12%
91 | CC(C)c1ccc(NC(=O)CS(=O)(=O)c2cccc3nsnc23)cc1 | inactive: 0.866%
92 | CCCCN(CCCC)CCNC(=O)Cn1nc(C)n2c(cc3sccc32)c1=O | inactive: 2.64%
93 | COc1ccc(NS(=O)(=O)c2cc(Br)cc3c2N(C(=O)C2CC2)CC3)cc1OC | inactive: -14.3%
94 | O=S(=O)(Nc1cc(F)ccc1F)c1ccc2[nH]c3c(c2c1)CCCC3 | inactive: -1.81%
95 | NS(=O)(=O)c1ccc(CCNc2nccn(-c3cccc(C(F)(F)F)c3)c2=O)cc1 | inactive: -29.5%
96 | CSc1nc2c(c(=O)[nH]1)C(c1cccc(F)c1F)CC(=O)N2 (configuration not stated) | inactive: -2.18%
97 | CC(C)(C)C(=O)Nc1ccc2nc(SCC(=O)N3CCOCC3)sc2c1 | inactive: 3.89%
